# Test results taken from PubChem BioAssay AID624418 (National Center for Advancing Translational Sciences (NCATS), 2012).
# The whole screen tested about 410,000 compounds, of which about 530 (0.13%) were called active. This list was built around the results that the source calls inconclusive (neither active nor inactive); the mix of calls is not that of the screen. The call rests on the fitted dose curve; in most records, active means well fitted inhibition curve with a large enough effect; inconclusive means small, poorly fitted or top-dose-only effect, or another doubt; inactive means no such curve, though single readings can be large or run the other way. A potency beside an inconclusive call is a rough fit, not a confirmed value.
# Test: qHTS of GLP-1 Receptor Inverse Agonists: Cytotox Screen
# Conditions: HEK293 cAMP-luciferase reporter cells, luminescence, 24 h; series mostly up to 38.3 µM
# How it was run: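 Here, cytotoxicity is scored as loss of luminescence. The MLSMR collection was tested on cells seeded in medium containing 10% Nu serum, with a 24 hr compound exposure preceded by 12 hours of culture.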
# Potency means the concentration at half of the fitted maximal effect.
row,Compound,Potency
1,CSCCC(NC(=O)c1ccco1)C(=O)NCC(C)(C)N1CCOCC1 (stereo not drawn),inactive
2,CN(C)C(=O)COC(=O)c1cc(Cl)cc(Cl)c1N,inactive
3,COc1cccc(/C=N/NC(=O)CSc2ccccc2C)c1O,"inconclusive: 2.82 µM [inhibitor, full curve, poor fit]"
4,CC(=O)c1c(C)[nH]c(C(=O)OCC(=O)NCCC(C)C)c1C,"inconclusive: 28.2 µM [inhibitor, single point]"
5,C#CCOCCOCCOCCNc1nc(N2CCN(C(=O)CCCCCCCCCCNC(=O)[C@@H](CCSC)n3cc(CCO)nn3)CC2)nc(N2CCN(C(=O)CCCCCCCCCCNC(=O)[C@H]([C@@H](C)CC)n3cc(CCCCCN)nn3)CC2)n1,"inconclusive: 10 µM [inhibitor, partial curve]"
6,CC1(C)CC(=O)C2=C(C1)Nc1ccccc1NC2,inactive
7,Cc1cc(C)c(OCCCCN2CCC(C)CC2)c(Br)c1,"inconclusive: 8.91 µM [inhibitor, single point]"
8,COc1ccc(C(=O)N(Cc2ccccc2)Cc2cc3cc4c(cc3[nH]c2=O)OCCO4)cc1,"inconclusive: 1.26 µM [inhibitor, full curve, poor fit]"
9,Cc1ccc(NC(=S)NCc2ccco2)c(C)c1,"inconclusive: 5.01 µM [inhibitor, partial curve]"
10,CCOc1ccc(C(=O)NC(=S)NCCCN2CCOCC2)cc1,"inconclusive: 17.8 µM [inhibitor, single point]"
11,O=C(O)c1ccc(S(=O)(=O)/N=C2\C=C(Nc3ccccc3F)C(=O)c3ccccc32)cc1,"inconclusive: 5.62 µM [inhibitor, partial curve, poor fit]"
12,COc1ccc(C(C#N)C2(C)OCCO2)cc1OC (stereo not drawn),inactive
13,COc1ccc(-c2csc(NC(=O)C3CCN(c4ncnc5sc(C)c(C)c45)CC3)n2)cc1OC,"inconclusive: 31.6 µM [inhibitor, single point]"
14,CN(C)CC/C=C1\c2ccc(F)cc2Sc2cc(F)c(Cl)cc21,"inconclusive: 28.2 µM [inhibitor, single point]"
15,CCCCn1cc(S(=O)(=O)c2ccc(OC)cc2)c(=O)c2cc(F)c(N3CCCC3)cc21,inactive
16,CC(C)(C)c1cc(NC(=O)Nc2ccccc2)no1,"inconclusive: 0.501 µM [inhibitor, full curve, poor fit]"
17,COc1cc(NS(C)(=O)=O)ccc1Nc1c2ccccc2nc2ccccc12,"inconclusive: 10 µM [inhibitor, partial curve, poor fit]"
18,CCOc1ccc(NC(=O)Cn2cc(C(=O)c3ccc(C)c(C)c3)c(=O)c3cc4c(cc32)OCCO4)cc1,inactive
19,CN1C(=O)C(C)(C)c2cc(S(=O)(=O)NCc3ccc(C(=O)Nc4ccc(Cl)cc4)cc3)ccc21,inactive
20,CCn1c2ccccc2c2cc(NC(=O)c3ccc(C)c([N+](=O)[O-])c3)ccc21,"inconclusive: 1.78 µM [inhibitor, full curve, poor fit]"
21,O=C(NCc1ccccn1)c1ccc(-c2ccccc2)cc1,inactive
22,COc1ccc(NC(=O)CN(C)C(=O)c2cc(-c3cccs3)nn2-c2ccccc2)cc1,"inconclusive: 10 µM [inhibitor, single point]"

row,Compound,Potency
1,Cc1nnc(NC(=O)c2oc3c(ccc4ccccc43)c2C)s1,inactive
2,CCCNC(=O)CSc1nc2nc(C)c(Cc3ccccc3Cl)c(C)n2n1,inactive
3,COc1ccc(N2CCN(CC(=O)Nc3ccccc3C(=O)NCc3ccccc3)CC2)cc1,"inconclusive: 28.2 µM [inhibitor, single point]"
4,Cc1cccc(C)c1NC(=S)NNc1ncc(C(F)(F)F)cc1Cl,inactive
5,O=C(CCl)N(c1ccccc1)c1c[nH]c2ccccc12,"inconclusive: 7.08 µM [inhibitor, partial curve, poor fit]"
6,Cc1c(NC(=O)/C(C#N)=C/c2ccc(-c3cc(Cl)ccc3Cl)o2)c(=O)n(-c2ccccc2)n1C,"inconclusive: 12.6 µM [inhibitor, partial curve, poor fit]"
7,C#Cc1ccc(NC(=O)C2(C)CCN2C(=O)Cc2ccc(C(C)C)cc2)cc1 (stereo not drawn),inactive
8,COc1cccc(C2C(C(=O)Nc3ccc(C)cc3C)=C(C)Nc3c(C(=O)Nc4cccc(C)c4)cnn32)c1OC (stereo not drawn),inactive
9,CCCNC(=O)C1CCC(Cn2c(=O)c3sccc3n(CC(=O)N3CCC(C)CC3)c2=O)CC1 (stereo not drawn),inactive
10,CCc1ccc2nc(N(CCCN(C)C)C(=O)c3ccc(C(=O)c4ccccc4)cc3)sc2c1,"inconclusive: 15.8 µM [inhibitor, single point]"
11,O=C(OCc1ccccc1)c1ccc(NCc2cc(O)ccc2O)cc1,active: 5.01 µM
12,CCOc1ccccc1-c1c2cc(O)c(=O)cc-2oc2cc(O)c(O)cc12,"inconclusive: 12.6 µM [inhibitor, single point]"
13,CCn1c(SCC(=O)NC(=O)NC(C)(C)C)nc2ccccc21,"inconclusive: 8.91 µM [inhibitor, partial curve, poor fit]"
14,CC(=O)Nc1ccc(C(=O)OCC(=O)NCc2ccccc2)cc1,inactive
15,CCc1ccc(CNC(=O)c2ccc(-c3nc(CS(=O)(=O)c4ccccc4)c(C)o3)cc2)cc1,inactive
16,CC1CC1C(=O)Nc1nc(-c2ccccn2)cs1 (stereo not drawn),"inconclusive: 14.1 µM [inhibitor, single point]"
17,O=C(c1cc(-c2ccc(Br)cc2)nc2ccccc12)N1CCN(c2ccccc2O)CC1,"inconclusive: 7.94 µM [inhibitor, partial curve, poor fit]"
18,COc1ccc(-c2nc(-c3ccc4c(c3)OCO4)[nH]c2-c2ccc(OC)cc2)cc1,"inconclusive: 20 µM [inhibitor, single point]"
19,O=[N+]([O-])c1ccc(OCCO)nc1,"inconclusive: 28.2 µM [inhibitor, single point]"
20,COc1ccccc1C1CCN(Cc2ccc3ccccc3c2)CC1,"inconclusive: 28.2 µM [inhibitor, single point]"
21,CCc1ccccc1NNC(=O)c1snnc1C,"inconclusive: 28.2 µM [inhibitor, single point]"
